Test results published in PMC3153576.

Test system: H4FL, fluorescein-labeled H4(1-20) peptide, unmethylated Arg-3
Test: stopped-flow fluorescence
Details: other: stopped-flow fluorescence

Recombinant His-tagged rat PRMT1 (sequence not shown)
kobs of association at 2 μM PRMT1: 469 ± 10 s^−1 at 2 μM PRMT1
